The text below walks through data of paper PMC6891891.

Chains of the proteins cited; added tags and fusions are not shown. Lines headed by an entry give the natural chain unless they say otherwise; changes in a name come on top.
UniProt P25694: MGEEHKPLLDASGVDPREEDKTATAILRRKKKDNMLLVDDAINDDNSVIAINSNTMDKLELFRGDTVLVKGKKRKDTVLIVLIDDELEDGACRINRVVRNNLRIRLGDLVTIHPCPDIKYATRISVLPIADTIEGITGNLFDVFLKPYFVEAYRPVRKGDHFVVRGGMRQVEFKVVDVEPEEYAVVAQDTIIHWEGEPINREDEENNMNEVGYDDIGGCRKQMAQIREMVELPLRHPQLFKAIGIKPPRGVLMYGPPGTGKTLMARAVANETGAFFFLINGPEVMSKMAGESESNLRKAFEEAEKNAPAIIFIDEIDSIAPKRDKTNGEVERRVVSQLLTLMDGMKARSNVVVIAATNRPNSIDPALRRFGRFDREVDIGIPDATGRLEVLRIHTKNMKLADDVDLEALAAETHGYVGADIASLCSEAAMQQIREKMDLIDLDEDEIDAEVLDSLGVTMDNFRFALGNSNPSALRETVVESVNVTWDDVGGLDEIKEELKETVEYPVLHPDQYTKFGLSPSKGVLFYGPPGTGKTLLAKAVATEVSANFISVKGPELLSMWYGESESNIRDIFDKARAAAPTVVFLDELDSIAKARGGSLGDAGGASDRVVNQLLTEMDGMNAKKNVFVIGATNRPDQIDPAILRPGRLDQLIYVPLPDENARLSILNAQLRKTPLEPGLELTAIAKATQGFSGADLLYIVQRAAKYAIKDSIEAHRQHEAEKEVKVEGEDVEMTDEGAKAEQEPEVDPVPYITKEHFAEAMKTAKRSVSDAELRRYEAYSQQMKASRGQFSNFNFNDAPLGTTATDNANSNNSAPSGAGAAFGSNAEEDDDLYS
UniProt Q12306: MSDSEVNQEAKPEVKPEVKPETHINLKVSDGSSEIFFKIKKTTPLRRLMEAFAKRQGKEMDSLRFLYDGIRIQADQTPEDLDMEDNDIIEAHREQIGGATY

Test [1] deals with T1, GST-Ulp2_(1-400) with sim1,2,3 mutations (S. cerevisiae) (UniProt P40537).
T1 sequence: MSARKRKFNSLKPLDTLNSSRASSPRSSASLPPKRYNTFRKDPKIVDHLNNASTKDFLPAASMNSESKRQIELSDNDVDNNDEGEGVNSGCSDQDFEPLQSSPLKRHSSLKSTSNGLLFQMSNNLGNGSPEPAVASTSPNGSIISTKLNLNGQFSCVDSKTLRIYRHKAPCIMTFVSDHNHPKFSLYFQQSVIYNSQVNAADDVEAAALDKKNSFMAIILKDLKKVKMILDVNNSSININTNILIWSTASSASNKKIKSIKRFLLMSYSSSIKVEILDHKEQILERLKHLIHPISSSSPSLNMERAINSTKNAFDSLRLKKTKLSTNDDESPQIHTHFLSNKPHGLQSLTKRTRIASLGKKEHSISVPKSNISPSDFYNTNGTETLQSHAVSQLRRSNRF
Nature of the test: pull-down; GST fusions (2.5 μg) on glutathione Sepharose 4B beads incubated with 2.5 μg His-tagged Smt3 or 2.5 μg poly-SUMO3 chains in 0.7 mL 1X PBS, 150 mM NaCl, 1% Triton X-100, overnight at 4°C; 5 washes; western blot with anti-Smt3, anti-SUMO2/3, anti-GST; both purified.

For test [2], the target named is T2, GST-Ulp2_(1-400) with sim1,2,3,4,5 mutations (S. cerevisiae) (UniProt P40537).
T2 sequence: T1 sequence with I229A, L230A, I276A, L277A
The test is described as above.

The target of test [3] is T3, GST-Ulp2_(1-400), recombinant GST fusion of the Ulp2 N terminus (S. cerevisiae) (UniProt P40537).
T3 sequence: T1 sequence with A60V, A61L, A200L, A201L, A206L, A207I, A208I
Described as above.

Test [4] concerns the target Cdc48 segregase, Y2H fusion (S. cerevisiae) (UniProt P25694). Nature of the test: two-hybrid; directed Y2H: pGAD-C1 (AD) and pGBD-C1 (BD) fusions cotransformed into the Y2HGold strain; HIS3 reporter, 8 mM 3-AT added in Figure 4D.
Test [5] deals with T4, Dbf4, AD-fusion and BD-fusion for Y2H (S. cerevisiae) (UniProt P32325).
T4 sequence: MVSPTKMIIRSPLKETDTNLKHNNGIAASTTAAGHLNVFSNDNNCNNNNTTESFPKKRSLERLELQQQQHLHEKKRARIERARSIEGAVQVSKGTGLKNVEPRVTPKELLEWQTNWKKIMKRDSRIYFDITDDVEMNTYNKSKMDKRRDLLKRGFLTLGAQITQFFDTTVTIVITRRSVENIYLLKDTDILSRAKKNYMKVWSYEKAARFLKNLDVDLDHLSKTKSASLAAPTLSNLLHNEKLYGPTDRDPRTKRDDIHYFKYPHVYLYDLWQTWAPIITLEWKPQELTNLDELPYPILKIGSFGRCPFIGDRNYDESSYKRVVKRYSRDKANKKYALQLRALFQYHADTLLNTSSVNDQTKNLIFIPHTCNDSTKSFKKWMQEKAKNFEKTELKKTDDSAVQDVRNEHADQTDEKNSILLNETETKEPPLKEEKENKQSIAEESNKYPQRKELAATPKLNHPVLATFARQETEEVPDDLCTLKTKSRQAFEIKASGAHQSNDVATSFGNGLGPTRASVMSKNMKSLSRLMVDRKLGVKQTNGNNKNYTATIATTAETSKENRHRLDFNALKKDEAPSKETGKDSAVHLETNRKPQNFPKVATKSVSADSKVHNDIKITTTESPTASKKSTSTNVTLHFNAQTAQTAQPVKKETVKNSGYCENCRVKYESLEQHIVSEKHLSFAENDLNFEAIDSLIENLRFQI
The test is described as above.

Changes are numbered by the printed parent chain. In names and notes the source's numbering stands. No constants are given. Whether binding was seen depends on the method and setting. Some binding calls cover weakened binding; strength is not graded here. Sequences can lack the tags named with a protein.

As to “Recombinant budding yeast N-terminally His-tagged wild-type SUMO (^HisSUMO) (from UniProt Q12306 1-101)”, the binding entry in test [1] was “binds”; in test [2], “binds weakly”; in test [3], “binds”.

B1: catalytically dead Ulp2 (Ulp2-C624S), AD-fusion and BD-fusion for Y2H (enzyme, UniProt P40537 1-1034)
chain: MSARKRKFNSLKPLDTLNSSRASSPRSSASLPPKRYNTFRKDPKIVDHLNNASTKDFLPVLSMNSESKRQIELSDNDVDNNDEGEGVNSGCSDQDFEPLQSSPLKRHSSLKSTSNGLLFQMSNNLGNGSPEPAVASTSPNGSIISTKLNLNGQFSCVDSKTLRIYRHKAPCIMTFVSDHNHPKFSLYFQQSVIYNSQVNLLDDVELIILDKKNSFMAIILKDLKKVKMILDVNNSSININTNILIWSTASSASNKKIKSIKRFLLMSYSSSIKVEILDHKEQILERLKHLIHPISSSSPSLNMERAINSTKNAFDSLRLKKTKLSTNDDESPQIHTHFLSNKPHGLQSLTKRTRIASLGKKEHSISVPKSNISPSDFYNTNGTETLQSHAVSQLRRSNRFKDVSDPANSNSNSEFDDATTEFETPELFKPSLCYKFNDGSSYTITNQDFKCLFNKDWVNDSILDFFTKFYIESSIEKSIIKREQVHLMSSFFYTKLISNPADYYSNVKKWVNNTDLFSKKYVVIPINISYHWFSCIITNLDAILDFHQNKDKNDAINSDEISINNPLVNILTFDSLRQTHSREIDPIKEFLISYALDKYSIQLDKTQIKMKTCPVPQQPNMSDSGVHVILNIRKFFENPVETIDVWKNSKIKSKHFTAKMINKYFDKNERNSARKNLRHTLKLLQLNYISYLKKENLYEEVMQMEEKKSTNINNNENYDDDDEEIQIIENIDQSSKDNNAQLTSEPPCSRSSSISTTEREPTELHNSVVRQPTGEIITDNEDPVRAASPETASVSPPIRHNILKSSSPFISESANETEQEEFTSPYFGRPSLKTRAKQFEGVSSPIKNDQALSSTHDIMMPSPKPKRIYPSKKIPQLSSHVQSLSTDSMERQSSPNNTNIVISDTEQDSRLGVNSESKNTSGIVNRDDSDVNLIGSSLPNVAEKNHDNTQESNGNNDSLGKILQNVDKELNEKLVDIDDVAFSSPTRGIPRTSATSKGSNAQLLSNYGDENNQSQDSVWDEGRDNPILLEDEDP
For the molecule B1, the binding entry in test [4] and in test [5] was “binds” throughout.
